Results reported in the supplement of paper PMC10338343.
± gives the standard deviation. Over roughly 3,700 sequences, “pre-steady-state target cleavage rate” has its median near 0.02; the highest 2% begin near 0.23. The list shows a part of the results, in another mix than the full data.

System: MILI (PIWIL2) piRISC loaded with Kctd7 piRNA (26 nt)
Experiment: pre-steady-state target cleavage rate (min^-1); MIWI and MILI are mouse PIWI proteins and EfPiwi is from a freshwater sponge; tags in brackets are library labels; higher = faster piRNA-guided slicing of the target
Settings: guide: Kctd7 piRNA 5'p-UGUUAAUCUCUCAGAGAAGGUGACAG; auxiliary factor: 500 nM mouse GTSF1
Experimental: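 Cleave-'n-Seq: a library of target RNAs (target site embedded in constant flanks, ACAGCATTCCGCGTTAGTGATATCCG... 5' flank; DNA-blocked outside the site) at 0.1 nM was incubated with 1 nM active mouse MILI or MIWI piRISC (synthetic 5'-monophosphorylated piRNA guide) with or without 500 nM mouse GTSF1 at 33 °C for 1 min to 16 h. Uncleaved targets were sequenced and normalised to non-target controls, and the pooled three trials were fitted to a burst-and-steady-state model to give the pre-steady-state cleavage rate (min^-1; k3 is constrained to at most 1e-4). Sequence is the target site only; target names encode pairing extent (gX:gY) and contiguous / 1-mismatch / 2-mismatch / bulge geometry. Fits with R² ≤ 0 are excluded.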

Row | Sequence | pre-steady-state target cleavage rate
1 | UAGUGACAGAGCUUGUCUGAGAGAUUAACA | 0.078 ± 0.014
2 | UAGUGUGUCACGUUCUCUGACAGAUUAACA | 0.0341 ± 0.0058
3 | UAGUGACAGACCAUCUCUGAGAGAUUAACA | 0.0563 ± 0.0097
4 | UAGUGACAGUCCUUCUGUGAGAGAAUAACA | 0.00447 ± 0.003
5 | UAGUGUGUCACCUUCUCUGUGAGAUUUACA | 0.0554 ± 0.013
6 | UAGUGACACACCAUCUCAGAGAGAUUAACA | 0.04 ± 0.0099
7 | UAGUGACAGUCACUUCUCUGAGAGAUUAACA | 0.114 ± 0.011
8 | UAGUGACAGUGCAUGUCUGAGAGAUUAACA | 0.00391 ± 0.0029
9 | UAGUGACUCACCAUCUCUGAGAGAUUAAGA | 0.00889 ± 0.0033
10 | UAGUGUGUCUCGUUCUCUGAGAGAUUAACA | 0.0972 ± 0.012
11 | UAGUGACACACCUUCUCUGUAGAGAUUAACA | 0.00775 ± 0.0035
12 | UAGUGACACACCUUCUCUGAGAGUAUAACA | 0.0621 ± 0.016
13 | UAGUGAGUCACCUUCUCUGAGAGGUUAACA | 0.142 ± 0.019
14 | UAGUGACAGACCUUGUCUGAGAGUUUAACA | 0.00958 ± 0.0044
15 | UAGUGACACACCUUCUCGGAGAGAUUAACA | 0.0735 ± 0.0079
16 | UAGUGACAGAGCUUCUCUGAGAGAUUAAGA | 0.00374 ± 0.0035
17 | UAGUGAGUCACCUUCUCUGAGGGAUUAACA | 0.164 ± 0.02
18 | UAGUGACUCACCUAUCUCUGAGAGAUUAACA | 0.151 ± 0.012
19 | UAGUGACAGUGCUUCUGUGAGAGAUUUACA | 0.0118 ± 0.0044
20 | UAGUGACUCUCCUUGUCUGAGAGAUUAACA | 0.0532 ± 0.014
21 | UAGUGACUCACCAACUCUGAGAGAUUAAGA | 0.0119 ± 0.0036
22 | UAGUGUGAGACCUUCUCUGAGAGAUUAAGA | 0.0278 ± 0.012
23 | UAGUGACAGUGGUUCUCUGAGAGAUGUAACA | < 0.0001
24 | UAGUGACAGUGGAACUCUGAGUCAUUAACA | 0.0129 ± 0.0098
25 | UAGUGUCACACCUUCUCUGAGAGAUUAUGA | 0.0704 ± 0.025

Row | Sequence | pre-steady-state target cleavage rate
26 | UAGUGAGUGACCUUCUCUGAGAGUUUAACA | 0.137 ± 0.03
27 | UAGUGUGUCACCUUCUGAGAGAGAUAUUGA | 0.00647 ± 0.0056
28 | UAGUCUGUCUCCUUCUGUGAGAGAUUAACA | 0.139 ± 0.011
29 | UAGUGACUCCACCUUCUCUGAGAGAUUAACA | 0.163 ± 0.017
30 | UAGUGACAGACCUUCUCUGAGAGGAUUAACA | 0.0736 ± 0.014
31 | UAGUCUGUCACGUUCUCUGAGAGAUUAUGA | 0.0171 ± 0.0039
32 | UAGUGACAGUGGUUUUCUGAGAGAUUAACA | 0.0108 ± 0.0021
33 | UAGUGACAGACCGUCUCUGAGAGAUUAACA | 0.0355 ± 0.0065
34 | UAGUCUGUCACCUUCUCUGAGACAUUAACA | 0.0601 ± 0.0083
35 | UAGUGACACACCUUCUCUCAGAGUUUAACA | 0.0247 ± 0.0063
36 | UAGUGACAGUGGAACUCUGACAGAUUUACA | < 0.0001
37 | UAGUGACACGCCUUCUCUGAGAGAUUAACA | 0.109 ± 0.011
38 | UAGUGUGUCACCCUCUCUGAGAGAUUAACA | 0.174 ± 0.016
39 | UAGUGACUCACCUUGUCUCAGAGAUUAACA | 0.0125 ± 0.0048
40 | UAGUGUCUCACCUUCUCUGAGAGAUAAACA | 0.11 ± 0.024
41 | UAGUGUGUCACCAUCUGUGAGAGAUUAACA | 0.0988 ± 0.0072
42 | UAGUGAGUCACCAUCUCUGAGACAUUAACA | 0.0534 ± 0.01
43 | UAGUGACACAGGAUCUCUGAGAGAUUAAGA | 0.0041 ± 0.0014
44 | UAGUGACAGUCCUUCUCUGAGAGACUUAACA | 0.0183 ± 0.0042
45 | UAGUGACAGUGGAAGAGACAGACGAUUAACA | < 0.0001
46 | UAGUGAGUCACCUACUCUGAGACAUUAACA | 0.0334 ± 0.0096
47 | UAGUGUGUCACCUUCUCUGAGAGAUGAACA | 0.0242 ± 0.0097
48 | UAGUCUGACACCUUCUCUGAGAGAUUAACA | 0.17 ± 0.0062
49 | UAGUGACAGACCUACUCUCAGAGAUUAACA | 0.0109 ± 0.0036
50 | UAGUCUGUCACCUUCUCUCAGAGAUAAACA | 0.0231 ± 0.0064

Row | Sequence | pre-steady-state target cleavage rate
51 | UAGUGUGUCAGCUUCUCUGAGAGAUAAACA | 0.0585 ± 0.014
52 | UAGUGUGUCACCUACUCUGAGACAUUAACA | 0.0742 ± 0.019
53 | UAGUCUGUCUGCUUCUCUGAGAGAUUAACA | 0.185 ± 0.0094
54 | UAGUGACACACCUUCUCUCAGAGAAUAACA | 0.00502 ± 0.004
55 | UAGUGAGUCACCUUCUCUGAGAGUUAUUGA | 0.157 ± 0.052
56 | UAGUCUGUCACCGUCUCUGAGAGAUUAACA | 0.185 ± 0.007
57 | UAGUGACAGUGCUUGUCUGAGAGAUUAUCA | 0.0051 ± 0.004
58 | UAGUGUGUCACCUUCUCUGACGAGAUUAACA | 0.028 ± 0.0098
59 | UAGUGUGUCUCCUUCUCUCAGAGAUUAACA | 0.0458 ± 0.0086
60 | UAGUGACAGAGGUUCUCUGAGAGAUUAACA | 0.00696 ± 0.0019
61 | UAGUGACUCUCCUUCUGUGAGAGAUUAACA | 0.0558 ± 0.01
62 | UAGUGUGUCACGUUCUCUGAGAGAUUAAGA | 0.0734 ± 0.014
63 | UAGUGAGUCACCAAGUCUGAGAGAUUAACA | 0.0788 ± 0.0089
64 | UAGUGACAGUGCUUCUGUGAGAGAUUAACA | 0.0383 ± 0.01
65 | UAGUGACUCACCUUCACUGAGAGAUAUUGA | 0.00634 ± 0.004
66 | UAGUGACAGACCUUCUCUGAGAGAUUAAUA | 0.0662 ± 0.015
67 | UAGUGUGUCUGCUUCUCUGAGAGAUUAAGA | 0.0516 ± 0.008
68 | UAGUGACAGAGCUUCUCUGAGACAUUAACA | 0.0126 ± 0.0038
69 | UAGUGACUCACCAUCUCUGAGAGAUUAUCA | 0.095 ± 0.019
70 | UAGUGAGUCACCUUCUCUGUAGAGAUUAACA | 0.00499 ± 0.0036
71 | UAGUGACACACCUUGUGUGAGAGAUUAACA | 0.0804 ± 0.011
72 | UAGUGACAGUGCUUCUCUGAGUGAUUUACA | < 0.0001
73 | UAGUGACAGUGCUUCUCUGAGGAGAUUAACA | 0.00233 ± 0.0023
